About 5,700 (2.6%) of roughly 220,000 compounds were called active. The shares of active, inactive and inconclusive entries below differ from those in the screen. Calls come from the whole dose curve; as a rule, active = well fitted inhibition curve with a large enough effect; inconclusive = small, poorly fitted or top-dose-only effect; inactive = no such curve, though single readings can be large or run the other way. Potencies of inconclusive entries are doubtful fits and often do not repeat.
Each compound was assayed against Lysine-specific demethylase 5B (Homo sapiens) (UniProt Q9UGL1) (assay: Primary screen for KDM5B Histone Demethylases FDH-coupled qHTS). Settings: FDH-coupled NADH fluorescence (FDH is formaldehyde dehydrogenase); activity change, negative = inhibition: at 57.7 µM (top of the series) unless noted.
Chain of UniProt Q9UGL1 (Q9UGL1 whole entry, looked up): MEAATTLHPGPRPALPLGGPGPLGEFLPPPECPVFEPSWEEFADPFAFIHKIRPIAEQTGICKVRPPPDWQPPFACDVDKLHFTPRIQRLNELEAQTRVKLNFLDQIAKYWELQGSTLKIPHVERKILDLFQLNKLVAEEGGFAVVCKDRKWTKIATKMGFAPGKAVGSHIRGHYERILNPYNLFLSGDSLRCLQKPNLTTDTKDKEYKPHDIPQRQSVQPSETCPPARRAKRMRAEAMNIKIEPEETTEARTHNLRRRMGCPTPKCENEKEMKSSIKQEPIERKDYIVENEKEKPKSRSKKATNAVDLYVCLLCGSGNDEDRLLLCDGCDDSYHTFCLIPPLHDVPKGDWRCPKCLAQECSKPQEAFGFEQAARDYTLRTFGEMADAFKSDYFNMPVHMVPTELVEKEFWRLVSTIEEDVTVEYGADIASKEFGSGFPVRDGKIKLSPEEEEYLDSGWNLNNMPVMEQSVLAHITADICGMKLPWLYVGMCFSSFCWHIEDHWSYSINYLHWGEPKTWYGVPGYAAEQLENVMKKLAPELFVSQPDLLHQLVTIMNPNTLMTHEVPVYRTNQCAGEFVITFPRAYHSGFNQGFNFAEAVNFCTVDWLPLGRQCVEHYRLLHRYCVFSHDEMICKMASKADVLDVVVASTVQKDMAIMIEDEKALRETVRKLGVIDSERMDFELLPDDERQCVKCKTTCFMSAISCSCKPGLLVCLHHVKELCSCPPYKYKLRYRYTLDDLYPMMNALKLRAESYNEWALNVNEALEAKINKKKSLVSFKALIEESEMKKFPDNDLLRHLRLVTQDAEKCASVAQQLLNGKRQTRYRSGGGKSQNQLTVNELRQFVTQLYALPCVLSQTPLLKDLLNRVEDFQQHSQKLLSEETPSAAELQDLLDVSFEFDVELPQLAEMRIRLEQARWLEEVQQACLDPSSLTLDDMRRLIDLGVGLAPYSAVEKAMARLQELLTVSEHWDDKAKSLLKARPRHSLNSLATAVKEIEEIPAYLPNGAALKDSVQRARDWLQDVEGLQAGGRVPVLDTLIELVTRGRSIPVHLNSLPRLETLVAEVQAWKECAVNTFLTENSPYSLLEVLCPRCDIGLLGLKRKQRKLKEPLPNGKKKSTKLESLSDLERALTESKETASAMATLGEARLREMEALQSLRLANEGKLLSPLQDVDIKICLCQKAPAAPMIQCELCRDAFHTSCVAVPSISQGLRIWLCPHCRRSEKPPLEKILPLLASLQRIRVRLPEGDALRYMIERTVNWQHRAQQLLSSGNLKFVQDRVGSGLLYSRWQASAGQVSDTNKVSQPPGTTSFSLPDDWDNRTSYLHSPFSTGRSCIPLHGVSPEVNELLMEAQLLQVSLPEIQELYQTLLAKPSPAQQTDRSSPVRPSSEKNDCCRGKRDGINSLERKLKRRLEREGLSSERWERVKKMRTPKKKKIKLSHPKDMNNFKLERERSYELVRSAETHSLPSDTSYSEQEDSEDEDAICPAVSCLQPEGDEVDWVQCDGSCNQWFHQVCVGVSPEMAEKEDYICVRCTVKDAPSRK
In short: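 Here, H3K4me3 peptide (12.5 µM in substrate mix) is demethylated by KDM5BΔAP, 200 nM final, after 10 min compound exposure. Formaldehyde product is coupled through FDH (0.25 U/mL in mix) to NADH fluorescence; 30-min ΔRFU feeds dose-response curves.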
In the case of `Cc1cccc(N2CCN(C(=O)c3ccc4c(c3)N(C(=O)c3ccccc3)CC4)CC2)c1C`, the “activity change, negative = inhibition” value is reported as inactive: -29.6%.
In the case of `Fc1cccc(Cl)c1CN1CCc2ccccc2C1`, the Potency is reported as inconclusive: 39.8 µM [inhibitor, partial curve, poor fit].
`Cn1nc(C(=O)N2CCN(c3ccc(Cl)cc3)CC2)c2c1-c1ccccc1S(=O)(=O)C2` was tested, and the Potency was inconclusive: 28.2 µM [inhibitor, single point].
`O=C(NCc1ccc(Cl)cc1)c1ccc2ccnn2c1` was tested, and the Potency was active: 35.5 µM.
For `COc1ccc(-c2cc(C(F)(F)F)nc(NCc3ccc(Cl)cc3)n2)cc1`, the Potency was inconclusive: 31.6 µM [inhibitor, partial curve, poor fit].
In the case of `Cc1cnc(C(=O)N[C@@H]2CCC[C@@H]2C(=O)N2CCN(C(C)C)CC2)cn1`, the Potency is reported as inconclusive: 39.8 µM [inhibitor, partial curve, poor fit].
`CCC1CN(C(=O)Nc2cccc(OC)c2)c2ccccc2O1` (stereo not drawn) was tested, and the Potency was inconclusive: 25.1 µM [inhibitor, partial curve, poor fit].
For `CCC(NC(=O)/C=C/c1ccccc1)c1cccs1` (stereo not drawn), the “activity change, negative = inhibition” value was inactive: 18.1%.
`COc1ccc2c(c1)c1c(c(=O)n(-c3ccc(F)c(Cl)c3)c(=O)n1CC(N)=O)n2C` was tested, and the Potency was inconclusive: 2.82 µM [inhibitor, full curve, poor fit].
In the case of `COc1cccc2c1cc1c(=O)n(CC(=O)O)nc(C)n12`, the Potency is reported as inconclusive: 15.8 µM [inhibitor, partial curve, poor fit].
`Cc1ccccc1Cn1c2ccccc2c2cnn(CC(=O)NCCCc3ccccc3)c(=O)c21` was tested, and the Potency was inconclusive: 17.8 µM [inhibitor, partial curve, poor fit].
In the case of `O=C(Cn1c(-c2cccs2)cc2cc(F)ccc21)N1CCN(c2cccc(Cl)c2)CC1`, the Potency is reported as inconclusive: 31.6 µM [inhibitor, partial curve, poor fit].
For `COc1ccccc1CN1CCc2nc(C(=O)Nc3ccc(Cl)cc3)oc2CC1`, the Potency was active: 35.5 µM.
For `COc1ccc(-c2ccc3c(c2)C(=O)N2CC[C@H](NC(=O)CSC)[C@H]2C(=O)N3)c(OC)c1`, the Potency was inconclusive: 17.8 µM [inhibitor, single point].
For `O=C(Nc1ccccc1)[C@@H]1C[C@@H](c2cccc(C(F)(F)F)c2)N(CC2CCOCC2)C1`, the Potency was inconclusive: 17.8 µM [inhibitor, partial curve, poor fit].
`O=C(CCCOC(=O)c1c(F)cccc1Cl)c1ccc(Br)cc1` was tested, and the “activity change, negative = inhibition” value was inactive: -8.64%.
In the case of `Cc1c(C(=O)NCc2ccccc2)sc2nc[nH]c(=O)c12`, the Potency is reported as inconclusive: 31.6 µM [inhibitor, single point].
For `COCCCNCCOc1ccccc1-c1ccccc1`, the Potency was inconclusive: 12.6 µM [inhibitor, partial curve, poor fit].
With `CC(Oc1ccc2ccc(=O)oc2c1)C(=O)N(C)Cc1cccc(F)c1` (stereo not drawn) the “activity change, negative = inhibition” value was inactive: 1.95%.
In the case of `O=C(c1ccc(Cl)cc1)N1CC2(CCCN(CC3CCCCC3)C2)Cc2ccccc21` (stereo not drawn), the Potency is reported as inconclusive: 79.4 µM [inhibitor, partial curve, poor fit].
`NC(=O)N1CCCC(C(=O)NCCc2noc(-c3ccccc3)n2)C1` (stereo not drawn) was tested, and the “activity change, negative = inhibition” value was inactive: -8.86%.
For `CC(C)(C)OC(=O)N1CC(Nc2ccccc2O)C1`, the Potency was active: 100 µM.
With `COc1ccc(CNC(=O)c2cc3c(-c4ccccc4F)nn(C)c3s2)cc1` the Potency was inconclusive: 25.1 µM [inhibitor, partial curve, poor fit].
For `O=c1cc(N2CCOCC2)oc2c(NC3CCOCC3)nccc12`, the Potency was active: 35.5 µM.
`CCc1cccc2c(C(CC(=O)NCc3ccc4c(c3)OCO4)c3ccc(OC)c(OC)c3)c[nH]c12` (stereo not drawn) was tested, and the Potency was inconclusive: 25.1 µM [inhibitor, partial curve].
`COCCN1CCCCCC(O)c2cc(C(=O)N3CCN(c4ccccn4)CC3)ccc21` (stereo not drawn) was tested, and the Potency was inconclusive: 31.6 µM [inhibitor, single point].
In the case of `CCOc1ccccc1NC(=O)Nc1cc(C(=O)NCc2ccc(C)cc2)ccc1N1CCCC1`, the Potency is reported as inconclusive: 3.16 µM [inhibitor, full curve, poor fit].
With `COc1ccc(OC)c(NC(=O)c2c(NCc3ccc(OC)c(OC)c3)sc3c2CCC3)c1` the Potency was inconclusive: 28.2 µM [inhibitor, partial curve, poor fit].
`COCCNC(=O)CCCN1C(=O)COc2ccc(C(=O)COc3ccc(F)c(Cl)c3)cc21` was tested, and the Potency was inconclusive: 22.4 µM [inhibitor, single point].
In the case of `O=C(C1=C(O)C(=O)N(CCOCCO)C1c1cccc([N+](=O)[O-])c1)c1cccs1` (stereo not drawn), the Potency is reported as inconclusive: 22.4 µM [inhibitor, partial curve, poor fit].
In the case of `Cc1ccc(-c2cn3c(n2)sc2cc(C(=O)NC4CCCc5ccccc54)ccc23)cc1` (stereo not drawn), the Potency is reported as inconclusive: 12.6 µM [inhibitor, partial curve, poor fit].
`CCc1ccc(NCc2cc3cc4c(cc3n(CC(=O)Nc3ccccc3Cl)c2=O)OCO4)cc1` was tested, and the Potency was inconclusive: 3.98 µM [inhibitor, full curve, poor fit].
`Cc1ccc(-c2nc3c(=O)n(-c4ccccc4)c4c(c(=O)n(C)c(=O)n4C)c3o2)cc1` was tested, and the Potency was inconclusive: 25.1 µM [inhibitor, single point].
In the case of `COCC(=O)NC[C@H]1O[C@@H](CO)[C@@H](O)[C@H]1N(C)CCc1ccccn1`, the Potency is reported as inconclusive: 35.5 µM [inhibitor, single point].
`CSCC[C@H](Nc1ncnc2sc3c(c12)CCCC3)C(=O)O` was tested, and the “activity change, negative = inhibition” value was inactive: 7.97%.
For `CC(C)Cn1c(SCc2noc(-c3ccc(Cl)cc3)n2)nnc1N1CCOCC1`, the “activity change, negative = inhibition” value was inactive: 0.444%.
With `CONC(=O)CSCC(=O)Nc1cccc(C)c1` the “activity change, negative = inhibition” value was inactive: 12.2%.
With `CCc1nn(CC(=O)N(CC)Cc2ccccc2)c(=O)c2cc3occc3n12` the Potency was inconclusive: 0.631 µM [inhibitor, partial curve, poor fit].
In the case of `CCc1ccc(CNC(=O)CSc2cc(=O)n(CC)c3ccccc23)cc1`, the Potency is reported as inconclusive: 25.1 µM [inhibitor, partial curve, poor fit].
`COc1ccc(-c2cn3c(n2)sc2cc(C(=O)NCCCN4CCCCC4)ccc23)cc1` was tested, and the Potency was inconclusive: 28.2 µM [inhibitor, partial curve, poor fit].
With `CCCn1c(=O)[nH]c(=O)c2c(C(=O)OCC)cc(-c3cccs3)nc21` the Potency was inconclusive: 7.08 µM [inhibitor, partial curve, poor fit].
`Cc1ccc2c(C(=O)N3CCN(C(C)C)CC3)cc(NC(=O)C(C)C)cc2n1` was tested, and the Potency was active: 25.1 µM.
With `O=C(OCc1ccccc1)N1CCOCC12CCN(Cc1ccccc1)CC2` the “activity change, negative = inhibition” value was inactive: -3.58% [at 86.2 µM].
`C=CCn1c(O)c(C=Nc2ccc(CN3CCCCC3)cc2)c(=O)[nH]c1=S` was tested, and the Potency was inconclusive: 39.8 µM [inhibitor, single point].
`Cc1cc(C)c(S(=O)(=O)NCCc2cc3ccc(C)cc3[nH]c2=O)c(C)c1` was tested, and the Potency was inconclusive: 35.5 µM [inhibitor, partial curve, poor fit].
In the case of `Cc1ccc2oc(C(=O)NC3CC(=O)N(C(C)C)C3)c(C)c2c1` (stereo not drawn), the Potency is reported as active: 25.1 µM.
In the case of `CC1=C(C(=O)N2CCCCC2)C(c2cccc(Cl)c2)n2c(nc3ccccc32)N1` (stereo not drawn), the activity change, negative = inhibition is reported as inconclusive: -30.8% [inhibitor].
For `Cn1cccc1CN1CCC2(CC1)CC(=O)c1ccc(Cl)cc1O2`, the “activity change, negative = inhibition” value was inactive: -0.372% [at 86.2 µM].
For `O=C(NCc1cccs1)C1(c2ccc(Cl)cc2)CCOCC1`, the “activity change, negative = inhibition” value was inactive: -14.5% [at 149 µM].
`OC(c1ccccc1)(C1CCCCC1)C(CN1CCOCC1)c1ccccc1` (stereo not drawn) was tested, and the Potency was inconclusive: 35.5 µM [inhibitor, partial curve, poor fit].
`CCn1nc(C)c2c(-c3ccccc3)cc(OC(C)C(=O)Nc3cccc(F)c3)nc21` (stereo not drawn) was tested, and the Potency was inconclusive: 31.6 µM [inhibitor, partial curve, poor fit].
With `COc1ccc(-c2c(C#N)c(SCC(=O)Nc3ccc(Br)cc3)nc(C)c2C(=O)Nc2ccccc2)cc1` the Potency was inconclusive: 22.4 µM [inhibitor, partial curve, poor fit].
With `O=C(Cn1nc2c(cc1=O)CCCC2)NCCc1nc2ccccc2[nH]1` the “activity change, negative = inhibition” value was inactive: -23.4%.
`CCCc1cc(=O)oc2cc(C)cc(OCC(=O)NCCN3CCOCC3)c12` was tested, and the Potency was inconclusive: 28.2 µM [inhibitor, partial curve, poor fit].
`COc1ccccc1-c1cc(-c2c(C)noc2C)cc2c1C(=O)N(C)C2` was tested, and the Potency was inconclusive: 39.8 µM [inhibitor, partial curve, poor fit].
For `CC(C)c1ccc(NC(=O)COC(=O)/C=C/c2cccc3cccnc23)cc1`, the Potency was inconclusive: 25.1 µM [inhibitor, partial curve, poor fit].
In the case of `CCOc1ccc(NC(=O)c2cc(S(=O)(=O)N3CCCC3)c[nH]2)cc1`, the activity change, negative = inhibition is reported as inconclusive: -31.1% [inhibitor].
`CC(=O)NCc1ccc(-c2csc(Nc3cc(C)cc(C)c3)n2)o1` was tested, and the “activity change, negative = inhibition” value was inactive: -27.7%.
`Cc1sc(-n2cccc2)c(C(C)NC(=O)Nc2ccccc2Cl)c1C` (stereo not drawn) was tested, and the Potency was inconclusive: 15.8 µM [inhibitor, partial curve, poor fit].
`O=S(=O)(N[C@H]1CO[C@H]2[C@@H]1OC[C@@H]2n1nnnc1-c1ccc2c(c1)OCO2)c1ccc2ccccc2c1` was tested, and the Potency was inconclusive: 35.5 µM [inhibitor, partial curve].
In the case of `CCc1cc(N2CCC(Oc3ccccc3OC)(C(=O)O)CC2)nc(C)n1`, the “activity change, negative = inhibition” value is reported as inactive: -18%.
For `COc1ccc(CN2CCC3(COc4ccccc4C(=O)N3)C2)cc1` (stereo not drawn), the Potency was inconclusive: 22.4 µM [inhibitor, single point].
For `CC(C)C(=O)N1C[C@@H]2CCCN3CCC[C@@H]([C@H]23)[C@H]1CCCC(=O)NCC1CC1`, the Potency was inconclusive: 20 µM [inhibitor, partial curve, poor fit].

Source: PubChem BioAssay AID1347165 (National Center for Advancing Translational Sciences (NCATS), 2019)
Note: nearly all actives have a fitted effect of over 70% in size.
Potency is the fitted concentration of half-maximal effect; tags give direction and shape of the fitted curve.
Throughout, for activity change, negative = inhibition: 0% is about no effect.
